B1: Caulobacter ParB omega fusion; a variant is named by its letters at X, in order, B8GW30 (parent)
chain: MESVVVGEPGMSEGRRGLGRGLSALLGEVDAAPAQAPGEQLGGSREAPIEILQRNPDQPRRTFREEDLEDLSNSIREKGVLQPILVRPSPDTAGEYQIVAGERAWRAAQRAGLKTVPIMVRELDDLAVLEIGIIENVQRADLNVLEEALSYKVLMEKFERTQENIAQTIGKSXSHVANXMRLLXLPDEVQSYLVSGELTAXHARAIAAAADPVALAKQIIEGGLSVRETEALARKAPNLSAGKSKGGRPPRVKDTDTQALESDLSSVLGLDVSIDHRGSTGTLTITYATLEQLDDLCNRLTRGI

Whole data set: some 81,000 sequences, median “one-hybrid fitness for binding parS DNA” near -0.17, cut for the highest 2% near 0.51. The list shows a part of the results.

Variants of B1 are the subject of the assay. Kind of assay: one-hybrid fitness for binding parS DNA (scaled: cognate 1, non-cognate 0); higher = stronger binding. Conditions: with parS DNA site. In outline:
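Caulobacter ParB libraries with four specificity codons randomised were screened by bacterial one-hybrid selection in the E. coli USO strain, using a HIS3 reporter whose site lies 19 bp from the promoter. Selection ran for 48 hours at 37°C on M9 lacking histidine, with 0.1 mM IPTG and 5 mM 3-AT. Plasmids were Illumina-sequenced before and after selection, three replicate libraries were pooled, and variants with under 10 reads were dropped. Fitness is the log change in each variant's read ratio to wild type, rescaled against the cognate and non-cognate sites.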
Consider PAFN, for which the “one-hybrid fitness for binding parS DNA” value is ≤ 0.2.
Then NVQC, with ≤ 0.2.
Then YGLR, with ≤ 0.2; and LTQT, with ≤ 0.2.
In the case of QELS, the “one-hybrid fitness for binding parS DNA” value is ≤ 0.2.
Then MYNC, with ≤ 0.2; and TFQT, with ≤ 0.2.
Then QNNL, with ≤ 0.2; and NTTL, with ≤ 0.2.
Then RTHF, with 0.277.
As for LNLA, the “one-hybrid fitness for binding parS DNA” value is ≤ 0.2.
Then SIPG, with ≤ 0.2; and FYYT, with ≤ 0.2; and PSVT, with ≤ 0.2.
Regarding RSWK, the “one-hybrid fitness for binding parS DNA” value was ≤ 0.2.
Regarding QVVC, the “one-hybrid fitness for binding parS DNA” value was ≤ 0.2.
Then GAAW, with ≤ 0.2; and SPIH, with ≤ 0.2; and IPAG, with ≤ 0.2.
Take GLQS: the “one-hybrid fitness for binding parS DNA” value was ≤ 0.2.
Then WYLY, with ≤ 0.2.
Next, TGNI: ≤ 0.2.
Regarding TVVM, the “one-hybrid fitness for binding parS DNA” value is ≤ 0.2.
Turning to YNSR, the “one-hybrid fitness for binding parS DNA” value was ≤ 0.2.
PQCR: the “one-hybrid fitness for binding parS DNA” value is ≤ 0.2.
Then ESTV, with ≤ 0.2; and VVES, with ≤ 0.2; and GKAT, with ≤ 0.2.
Then NSGR, with ≤ 0.2.
As to APIS, the “one-hybrid fitness for binding parS DNA” value is ≤ 0.2.
For TIIG, the “one-hybrid fitness for binding parS DNA” value was ≤ 0.2.
Then SFKQ, with ≤ 0.2; and CAQG, with ≤ 0.2; and GNCY, with ≤ 0.2.
Regarding MKAT, the “one-hybrid fitness for binding parS DNA” value is ≤ 0.2.
Turning to MSTR, the “one-hybrid fitness for binding parS DNA” value was ≤ 0.2.
In the case of DPLS, the “one-hybrid fitness for binding parS DNA” value was ≤ 0.2.
Consider ESQT, for which the “one-hybrid fitness for binding parS DNA” value is ≤ 0.2.
Next, SHSM: ≤ 0.2.
Then RGDT, with 0.371; and RLPP, with ≤ 0.2; and GINS, with ≤ 0.2.
With SALF, the “one-hybrid fitness for binding parS DNA” value was ≤ 0.2.
With HPCS, the “one-hybrid fitness for binding parS DNA” value was ≤ 0.2.
In the case of EWPR, the “one-hybrid fitness for binding parS DNA” value was ≤ 0.2.
As to NRDH, the “one-hybrid fitness for binding parS DNA” value is ≤ 0.2.
Then LLLD, with ≤ 0.2.
Then AEGG, with ≤ 0.2; and PCPL, with ≤ 0.2; and GCVG, with ≤ 0.2.
Then LYHW, with ≤ 0.2; and NGPQ, with ≤ 0.2.
For VGIC, the “one-hybrid fitness for binding parS DNA” value was ≤ 0.2.
Then RRRW, with ≤ 0.2; and TYPR, with ≤ 0.2; and DHKA, with ≤ 0.2.
As for PLAA, the “one-hybrid fitness for binding parS DNA” value was ≤ 0.2.
Next, VWSH: ≤ 0.2; LTPA: ≤ 0.2; KREL: ≤ 0.2.
Turning to ILQT, the “one-hybrid fitness for binding parS DNA” value was ≤ 0.2.
Next, SLLM: ≤ 0.2; DRTF: ≤ 0.2.
Next, VLHW: ≤ 0.2; HYRC: ≤ 0.2.
Take GFCG: the “one-hybrid fitness for binding parS DNA” value is ≤ 0.2.
Regarding DMLT, the “one-hybrid fitness for binding parS DNA” value is ≤ 0.2.
Regarding KGTY, the “one-hybrid fitness for binding parS DNA” value was ≤ 0.2.
Then SACC, with ≤ 0.2; and NVIK, with ≤ 0.2; and NSHE, with ≤ 0.2.
Regarding WCTC, the “one-hybrid fitness for binding parS DNA” value was ≤ 0.2.
Next, DAEC: ≤ 0.2.
Then RNPR, with ≤ 0.2.
On to CCVT, for which the “one-hybrid fitness for binding parS DNA” value was ≤ 0.2.
Then STKV, with ≤ 0.2; and KTAC, with ≤ 0.2.
Then PHEA, with ≤ 0.2; and HSSL, with ≤ 0.2.
Next, SMAE: ≤ 0.2; DNYL: ≤ 0.2; RACF: 0.228.
Turning to MRTA, the “one-hybrid fitness for binding parS DNA” value is ≤ 0.2.
Then KVRC, with ≤ 0.2.
For EDAG, the “one-hybrid fitness for binding parS DNA” value was ≤ 0.2.
Then WVDT, with ≤ 0.2; and HDTF, with ≤ 0.2; and NSNS, with ≤ 0.2.
Next, LIKQ: ≤ 0.2; TKAT: ≤ 0.2; CCRT: ≤ 0.2.
WHNG: the “one-hybrid fitness for binding parS DNA” value is ≤ 0.2.
Then DPSR, with ≤ 0.2.
For the variant QCNE, the “one-hybrid fitness for binding parS DNA” value was ≤ 0.2.
RKPD: the “one-hybrid fitness for binding parS DNA” value was ≤ 0.2.
Next, GQNC: ≤ 0.2; PENT: ≤ 0.2.
Consider HKRE, for which the “one-hybrid fitness for binding parS DNA” value is ≤ 0.2.
Then RTYY, with 0.49; and MTPF, with ≤ 0.2.
Then MCRT, with ≤ 0.2.
Turning to ARTD, the “one-hybrid fitness for binding parS DNA” value was ≤ 0.2.
On to QNLV, for which the “one-hybrid fitness for binding parS DNA” value is ≤ 0.2.
For QWLG, the “one-hybrid fitness for binding parS DNA” value was ≤ 0.2.
Take TIAR: the “one-hybrid fitness for binding parS DNA” value was ≤ 0.2.
Next, RECG: 0.221; MCGT: ≤ 0.2; VMVT: ≤ 0.2.
Take RFKK: the “one-hybrid fitness for binding parS DNA” value is ≤ 0.2.
Next, WWNC: ≤ 0.2; YHPF: ≤ 0.2.
For NPHC, the “one-hybrid fitness for binding parS DNA” value is ≤ 0.2.
Then WHKV, with ≤ 0.2; and DGQS, with ≤ 0.2.
With GTQK, the “one-hybrid fitness for binding parS DNA” value was ≤ 0.2.
Then GSNR, with ≤ 0.2; and LCIF, with ≤ 0.2.
Then RYYA, with 0.522; and KKGK, with ≤ 0.2; and RWQT, with 0.618.
Turning to RQES, the “one-hybrid fitness for binding parS DNA” value was 0.962.
Then RLGM, with 0.352.
For HMGI, the “one-hybrid fitness for binding parS DNA” value is ≤ 0.2.
For VIYC, the “one-hybrid fitness for binding parS DNA” value was ≤ 0.2.
Next, PKQC: ≤ 0.2.
Then KLVK, with ≤ 0.2; and SRRK, with ≤ 0.2.
NVLA: the “one-hybrid fitness for binding parS DNA” value is ≤ 0.2.
Consider GTLE, for which the “one-hybrid fitness for binding parS DNA” value was ≤ 0.2.
Take NLAG: the “one-hybrid fitness for binding parS DNA” value is ≤ 0.2.
As for LPSA, the “one-hybrid fitness for binding parS DNA” value was ≤ 0.2.
Then QMDD, with ≤ 0.2; and DRTQ, with ≤ 0.2; and YKPS, with ≤ 0.2.
For the variant MACK, the “one-hybrid fitness for binding parS DNA” value was ≤ 0.2.
Next, RLRV: ≤ 0.2.
Regarding SWEE, the “one-hybrid fitness for binding parS DNA” value is ≤ 0.2.
Then PWIM, with ≤ 0.2.
Take GAYF: the “one-hybrid fitness for binding parS DNA” value was ≤ 0.2.
Take VADV: the “one-hybrid fitness for binding parS DNA” value is ≤ 0.2.
Next, RENC: 0.27; RKLF: ≤ 0.2; PSYV: ≤ 0.2.
Then HFSG, with ≤ 0.2; and PEQC, with ≤ 0.2.
For CNGC, the “one-hybrid fitness for binding parS DNA” value is ≤ 0.2.
Consider QGPT, for which the “one-hybrid fitness for binding parS DNA” value is ≤ 0.2.
Then VYET, with ≤ 0.2.
Then RSQF, with 0.218; and TTQY, with ≤ 0.2.
As for LSRG, the “one-hybrid fitness for binding parS DNA” value is ≤ 0.2.
Then QTRN, with ≤ 0.2; and VLEN, with ≤ 0.2.

Values taken from a collection of fitness landscapes (doi:10.1016/j.celrep.2020.107928).
